Hit rate of the full screen: of about 410,000 compounds, about 530 (0.13%) were called active. The inconclusive results got no clear call from the source; some entries with a clear call stand among them for comparison. Calls come from the whole dose curve; as a rule, active = well fitted inhibition curve with a large enough effect; inconclusive = small, poorly fitted or top-dose-only effect, or another doubt; inactive = no such curve, though single readings can be large or run the other way. Where the call is inconclusive, the potency comes from a doubtful curve fit.
experiment: qHTS of GLP-1 Receptor Inverse Agonists: Cytotox Screen; settings: HEK293 cAMP-luciferase reporter cells, luminescence, 24 h; series mostly up to 38.3 µM
Outline: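 1536-well qHTS counterscreen of the MLSMR; 200 cells/uL, 12 h pre-incubation, 23 nL cpd, 24 h at 37 deg C 5% CO2, luciferase detection reagent, 12 min RT, luminescence. Inhibition = undesired.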
Potency is the fitted concentration of half-maximal effect.

Structure (SMILES)	Potency
CC(=O)c1cc(N2CCC(C(=O)O)CC2)ccc1[N+](=O)[O-]	inconclusive: 11.2 µM [inhibitor, partial curve]
CN(C)CCNC(=O)c1cccc(-c2cnc3c(NC=O)cc(/C=C/c4ccccc4)cn23)c1	inconclusive: 22.4 µM [inhibitor, single point]
CCOC(=O)c1cnc(-n2nc(C)cc2C)nc1NC(C)c1ccccc1 (configuration not stated)	inconclusive: 1.78 µM [inhibitor, full curve, poor fit]
COc1ccccc1-c1c(C)nn2c(C(F)(F)F)cc(-c3ccccc3)nc12	inactive
CN(CC(O)COc1ccc2ccccc2c1)C1CCCCC1 (configuration not stated)	inactive
O=C(c1ccc(CS(=O)c2ccccc2Cl)o1)N1CCN(c2ccccc2F)CC1 (configuration not stated)	inconclusive: 7.08 µM [inhibitor, partial curve, poor fit]
c1ccc2c(c1)CCCN2c1nc2ccccc2n2cnnc12	inconclusive: 11.2 µM [inhibitor, partial curve]
Cc1ccc2cccc(NC(=S)NC(=O)c3c(Br)cnn3C)c2n1	inconclusive: 28.2 µM [inhibitor, single point]
CCO[C@H]1OC(C(=O)NCc2nc3ccccc3[nH]2)=C[C@@H](C2CC2)[C@@H]1CCCO	inconclusive: 0.562 µM [inhibitor, full curve, poor fit]
Cc1ccc(NC(=S)NC2CCCC2)cc1	inconclusive: 28.2 µM [inhibitor, single point]
COc1ccc(C2c3ccc4ccccc4c3Oc3ncn(CCN(C)C)c(=N)c32)cc1 (configuration not stated)	inconclusive: 28.2 µM [inhibitor, single point]
CCOc1ccccc1NC(=O)N1CCN(Cc2cc(=O)n3nc(-c4ccc(C)cc4)sc3n2)CC1	inactive
CCCCCNCC(=O)Nc1cccc(C(=O)Nc2cccc(C(F)(F)F)c2)c1	inconclusive: 12.6 µM [inhibitor, single point]
CCOc1ccc(S(=O)(=O)N(CC(=O)NCCSCc2ccccc2)c2ccccc2)cc1	inactive
O=[N+]([O-])c1ccccc1N=Nc1ccc(O)cc1O	inconclusive: 28.2 µM [inhibitor, single point]
Cc1ccc(NC(=O)CCl)c(C)c1	inconclusive: 28.2 µM [inhibitor, single point]
O=C(NCc1ccc(F)cc1)c1cccc(N2CCCS2(=O)=O)c1	inactive
COc1cc([C@H]2c3[nH]c4ccccc4c3C[C@H]3C(=O)N4[C@@H](c5cc(OC)c(OC)c(OC)c5)c5[nH]c6ccccc6c5C[C@H]4C(=O)N23)cc(OC)c1OC	inactive
Cc1onc(-c2c(Cl)cccc2Cl)c1C(=O)NC1C(=O)N2C1SC(C)(C)C2C(=O)O (configuration not stated)	inactive
CC(=O)NC(c1ccccc1)c1nc(/C=C/c2ccccc2)cs1 (configuration not stated)	inactive
CC1CCC(NC(=O)Cn2ncc3ccccc32)CC1 (configuration not stated)	inconclusive: 2 µM [inhibitor, full curve, poor fit]
Clc1cccc(Cl)c1COn1nnc2ccccc21	inconclusive: 7.94 µM [inhibitor, partial curve, poor fit]
COc1ccc(NC(=S)N(Cc2ccc(N(C)C)cc2)Cc2ccco2)cc1	inconclusive: 11.2 µM [inhibitor, partial curve, poor fit]
O=C(Nc1ccc(N2CCCCCC2)cc1)c1ccccc1Cl	inconclusive: 2 µM [inhibitor, full curve]

Structure (SMILES)	Potency
Cc1cc2oc(C(=O)N(Cc3ccccc3)C3CCS(=O)(=O)C3)c(C)c2cc1C (configuration not stated)	inconclusive: 28.2 µM [inhibitor, single point]
COc1ccc(C2C(C#N)=C3NC(=O)c4c(sc5c4CCCCC5)N3C3=C2C(=O)CC(C)(C)C3)cc1 (configuration not stated)	inactive
CCNc1ccc([N+](=O)[O-])cc1	inconclusive: 10 µM [inhibitor, single point]
Cc1ccc(CSc2nc3c(c(N(C)C)n2)CCCC3)cc1	inactive
CCOc1ccccc1Nc1cc(C)nc2ccccc12	inconclusive: 2.24 µM [inhibitor, partial curve, poor fit]
CN1/C(=C\C=C2/SC(=S)N(CC(=O)O)C2=O)C(C)(C)c2ccccc21	inconclusive: 2.51 µM [inhibitor, partial curve, poor fit]
Cc1ccccc1N=C1NC(=O)/C(=C/c2cccn2C)S1	inconclusive: 28.2 µM [inhibitor, single point]
Cc1ccc2c(c1)cc1c(=O)n(CC(=O)NCc3ccco3)nc(C)n12	inactive
CCCn1nnc(NC(=O)COc2cc(C)ccc2C(C)C)n1	inactive
COc1ccc2cc(-c3cn4c(n3)sc3cc(F)ccc34)c(=O)oc2c1	inactive
Cc1ccc(S(=O)(=O)c2nc(-c3ccccc3)oc2N2CCCCCC2)cc1	inactive
c1ccc2c(OCCCN3CCCCCC3)cccc2c1	inconclusive: 20 µM [inhibitor, single point]
Nc1c(C(=O)NC2CCCCC2)nsc1C(=O)OCC(=O)NC1CCCCC1	inactive
CCOC(=O)c1ccccc1NCN1C(=O)CSC1=O	inactive
O=C(COC(=O)c1ccccc1Nc1ccccc1)c1ccccc1	inconclusive: 7.08 µM [inhibitor, partial curve, poor fit]
OC(COc1ccc(OCC(O)CN2CCCCC2)cc1)CN1CCCCC1 (configuration not stated)	inconclusive: 10 µM [inhibitor, single point]
Cc1cc(SCC(=O)c2cccs2)n2nc(C)c(-c3ccccc3)c2n1	inconclusive: 3.98 µM [inhibitor, full curve, poor fit]
Cc1ccc(CSc2nc3ccncc3[nH]2)cc1	inactive
Cc1ccccc1C1CC(=O)c2ccccc2C1C (configuration not stated)	inactive
Cc1cc(=O)[nH]c(=S)n1-c1ccccc1	inactive
CCc1cccc2c(C(=O)COC(=O)c3ccc(O)cc3)c[nH]c12	inconclusive: 14.1 µM [inhibitor, single point]
Cc1ccc(C)c(N2CCN(C(=O)c3cc(S(=O)(=O)N4CCCCC4)cn3C)CC2)c1	inactive
COc1ccc(CCn2c(=N)c(C(=O)NCCN3CCOCC3)cc3c(=O)n4cccc(C)c4nc32)cc1OC	inconclusive: 11.2 µM [inhibitor, partial curve, poor fit]
CCOC(=O)c1c(NC(=O)c2cc3nc(-c4ccc(OC)cc4)cc(C(F)(F)F)n3n2)sc(C)c1C	inactive

Structure (SMILES)	Potency
CCOC(=O)c1nnn(C(CC)C(=O)Nc2c(C)cccc2C)c1C(=O)OCC (configuration not stated)	inactive
CC1(C)N([O-])c2cc([N+](=O)[O-])ccc2[N+]1=O	inconclusive: 4.47 µM [inhibitor, partial curve]
CCCC[C@@H]1CNCCN1CCc1cc(C(F)(F)F)cc(C(F)(F)F)c1	inconclusive: 31.6 µM [inhibitor, partial curve, poor fit]
CC(=O)c1ccc(NC(=S)N(CCCN(C)C)Cc2ccccc2)cc1	inactive
CCN1CCN(Cc2ccc(NC(=O)c3cc(NC(=O)C(=O)c4c[nH]c5ccccc45)cc(OC)c3)cc2C(F)(F)F)CC1	inconclusive: 28.2 µM [inhibitor, single point]
CCCCNC(=S)NNC(=O)CCn1nc(C)c(Br)c1C	active: 5.62 µM
O=C(NC(=S)Nc1nc2ccccc2s1)c1ccco1	inconclusive: 2.82 µM [inhibitor, full curve]
Nc1c(Cl)cc2c(c1Oc1ccccc1)C(=O)c1ccccc1C2=O	inconclusive: 12.6 µM [inhibitor, single point]
Cc1ccc(NC(=O)c2ccc(=O)n(CC(=O)Nc3cc(C)cc(C)c3)n2)cc1	inactive
COc1cccc2sc(Nc3nnc(-c4ccccc4Cl)o3)nc12	inconclusive: 12.6 µM [inhibitor, partial curve, poor fit]
CC(=O)Nc1ccc(NC(=O)CSc2nnc3c4cc(Br)ccc4n(C)c3n2)cc1	inactive
CN(C)CCN1CCc2ccccc21	inconclusive: 22.4 µM [inhibitor, single point]
COc1ccc(N2CCN(C(=O)CNC(=O)Cc3ccc(Cl)cc3)CC2)cc1	inconclusive: 28.2 µM [inhibitor, single point]
Cc1ccccc1NC(=S)NCCSc1ccc(Cl)cc1	inconclusive: 28.2 µM [inhibitor, single point]
CCOc1cc(/C=C2\SC(=O)N=C2N)ccc1O	inconclusive: 31.6 µM [inhibitor, single point]
COc1cc(Br)cc(/C=N/NC(=O)Cc2ccc(C(F)(F)F)cc2[N+](=O)[O-])c1O	active: 0.501 µM
COc1ccc(CNC(=O)c2ccc(-c3c(C)noc3C)c3ccoc23)cc1OC	inconclusive: 12.6 µM [inhibitor, partial curve, poor fit]
Nc1ccccc1C(=O)NNC(=O)C(=O)/C=C(\O)c1ccccc1	inactive
CCCc1cc2c(=O)c(-c3ccccn3)c(C)oc2cc1O	inconclusive: 31.6 µM [inhibitor, single point]
Cc1cc(C)nc(-n2nc(C)c(Br)c2Nc2ccc(Br)cc2)n1	active: 5.62 µM
COc1cc(-c2nc3cnccn3c2Nc2ccc(C(C)C)cc2)ccc1O	inactive
O=C(COc1ccc(Cl)cc1Cl)N/N=C/c1ccc[nH]1	inconclusive: 12.6 µM [inhibitor, partial curve, poor fit]
S=C(Nc1ccc(Cl)cc1)NC1CC2CCCC(C1)N2C1CCCC1 (configuration not stated)	inconclusive: 28.2 µM [inhibitor, single point]
Nc1nc(CN2CCN(c3ccccc3F)CC2)nc(N2CCCc3ccccc32)n1	inconclusive: 14.1 µM [inhibitor, single point]

Reference: PubChem BioAssay AID624418 (National Center for Advancing Translational Sciences (NCATS), 2012)
